Source: PubChem BioAssay AID504332 (National Center for Advancing Translational Sciences (NCATS), 2011)
Hit rate of the full screen: of about 350,000 compounds, about 31,000 (8.9%) were called active. The shares of active, inactive and inconclusive entries below differ from those in the screen. Calls follow the shape of the dose curve; as a rule, active = well fitted inhibition curve with a large enough effect; inconclusive = small, poorly fitted or top-dose-only effect; inactive = no such curve, though single readings can be large or run the other way. Potencies of inconclusive entries are doubtful fits and often do not repeat.

molecular target: Histone-lysine N-methyltransferase EHMT2 (Homo sapiens) (UniProt Q96KQ7); experiment: qHTS Assay for Inhibitors of Histone Lysine Methyltransferase G9a; conditions: G9a H3K9 monomethylation, AlphaScreen, 2 h; activity, negative = inhibition: at 59 µM (top of the series) unless noted; also: nearly all actives have a fitted effect of over 75% in size
Sequence of UniProt Q96KQ7 (Q96KQ7 whole entry, looked up): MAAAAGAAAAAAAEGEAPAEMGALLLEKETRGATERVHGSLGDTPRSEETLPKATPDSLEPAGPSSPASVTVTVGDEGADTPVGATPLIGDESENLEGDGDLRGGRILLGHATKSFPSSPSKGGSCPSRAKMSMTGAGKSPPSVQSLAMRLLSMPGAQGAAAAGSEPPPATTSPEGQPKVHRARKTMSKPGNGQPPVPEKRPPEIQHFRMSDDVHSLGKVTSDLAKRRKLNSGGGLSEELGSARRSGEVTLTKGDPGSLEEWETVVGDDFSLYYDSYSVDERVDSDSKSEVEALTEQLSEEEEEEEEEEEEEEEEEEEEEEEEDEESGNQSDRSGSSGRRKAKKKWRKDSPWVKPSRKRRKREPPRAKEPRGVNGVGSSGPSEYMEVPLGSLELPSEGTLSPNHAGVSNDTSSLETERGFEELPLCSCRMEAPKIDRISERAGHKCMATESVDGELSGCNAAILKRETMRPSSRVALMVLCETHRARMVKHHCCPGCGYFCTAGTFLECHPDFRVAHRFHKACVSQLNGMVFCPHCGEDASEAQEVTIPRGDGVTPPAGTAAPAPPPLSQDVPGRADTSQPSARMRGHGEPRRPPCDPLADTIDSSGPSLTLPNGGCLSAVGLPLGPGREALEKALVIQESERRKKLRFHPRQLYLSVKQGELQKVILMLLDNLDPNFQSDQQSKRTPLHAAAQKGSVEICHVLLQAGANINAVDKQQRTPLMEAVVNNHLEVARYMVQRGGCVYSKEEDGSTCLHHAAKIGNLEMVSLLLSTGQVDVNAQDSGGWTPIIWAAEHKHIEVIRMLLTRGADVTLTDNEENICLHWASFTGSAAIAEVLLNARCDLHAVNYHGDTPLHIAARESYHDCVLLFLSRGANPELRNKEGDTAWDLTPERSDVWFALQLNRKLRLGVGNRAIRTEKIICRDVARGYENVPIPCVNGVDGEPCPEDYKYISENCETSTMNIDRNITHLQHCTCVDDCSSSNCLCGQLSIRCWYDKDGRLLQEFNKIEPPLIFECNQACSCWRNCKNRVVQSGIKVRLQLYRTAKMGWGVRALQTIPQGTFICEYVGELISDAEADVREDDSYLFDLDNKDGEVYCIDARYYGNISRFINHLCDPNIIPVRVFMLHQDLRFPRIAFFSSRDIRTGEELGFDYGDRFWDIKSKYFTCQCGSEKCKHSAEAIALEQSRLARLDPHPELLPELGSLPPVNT
How it was run: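 Compounds were preincubated with 20 nM G9a for 15 min, after which biotinylated H3K9 peptide (500 nM) and SAM (20 uM) started a 2 h room-temperature reaction. Monomethylated product was quantified by antibody-based AlphaScreen chemiluminescence.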
% is scaled to controls: 0 for no effect and ±100 for the full control effect; potency is read from the fitted curve at half-maximal effect; tags tell the direction and shape of the fitted curve.

SMILES	Potency	activity, negative = inhibition
CC(C)(C)NC(=S)N1CCn2cccc2C1c1cccnc1 (centres undefined)	inconclusive: 56.2 µM [inhibitor, partial curve]	
C[C@]12CC[C@@H]3c4ccc(O)cc4CC[C@H]3[C@@H]1C[C@@H](O)[C@@H]2O[C@@H]1O[C@H](C(=O)O)[C@@H](O)[C@H](O)[C@H]1O	inconclusive: 0.794 µM [inhibitor, full curve, poor fit]	
CCCCNC(=S)N1CCn2cccc2C1c1cccnc1 (centres undefined)	inconclusive: 79.4 µM [inhibitor, single point]	
C=CCn1c(O)c(C(CC)=Nc2ccc3c(c2)CCC3)c(=O)[nH]c1=O		inactive: 1.61% [at 102 µM]
CCCCn1c(O)c(/C=C2/C=CC=N2)c(=O)[nH]c1=O	inconclusive: 44.7 µM [inhibitor, partial curve, poor fit]	
CCOP(=O)(OCC)C(O)c1ccc(OC)cc1OC (centres undefined)		inactive: 7.49%
CCOC(=O)N1CCN(Cc2ccccc2F)CC1	inconclusive: 2 µM [inhibitor, partial curve, poor fit]	
CCc1nnc(NC(=O)CCc2nc(C3=CCN(C)CC3)no2)s1	inconclusive: 50.1 µM [inhibitor, partial curve]	
Cc1ccc(NC(=O)Nc2cc3c(cc2N2CCCCC2)n(C)c(=O)n3C)cc1Cl	inconclusive: 8.91 µM [inhibitor, partial curve]	
COc1cccc(N2C(=O)NC(=O)/C(=C\c3ccc([N+](=O)[O-])s3)C2=O)c1	active: 7.94 µM	
Nc1cc2nc3ccccc3nc2cc1N	inconclusive: 1.26 µM [inhibitor, full curve, poor fit]	
N#CSCC(=O)N1c2ccccc2CCc2ccccc21	inconclusive: 31.6 µM [inhibitor, single point]	
CCOc1ccccc1NC(=O)c1sc2nc3c(cc2c1N)CN(Cc1ccccc1)CC3	inconclusive: 35.5 µM [inhibitor, partial curve, poor fit]	
C[C@]12C=CC(=O)C=C1CC[C@@H]1C2CC[C@]2(C)OC(=O)CCC12 (some centres undefined)	inconclusive: 0.316 µM [inhibitor, partial curve, poor fit]	
COC(=O)c1ccc(NS(=O)(=O)NC(=O)c2cn(C)c3ccccc23)cc1	active: 79.4 µM	
O=[N+]([O-])c1ccc(N2CCCC2)c2ccncc12	inconclusive: 35.5 µM [inhibitor, partial curve]	
C[N+]1(C)[C@@H]2CC(OC(=O)[C@@H](CO)c3ccccc3)C[C@@H]1[C@H]1O[C@H]12 (some centres undefined)		inactive: -47.4%
Cc1cc(O)c2c(c1)C(=O)C13C(=C2O)C(=O)[C@H]2[C@@H](O)[C@@H]1[C@H]1[C@H](O)[C@@H]3C(=O)C3=C(O)c4c(O)cc(C)cc4C(=O)C312 (some centres undefined)		inactive: -24.5% [at 12.7 µM]
Nc1ccc(Cl)cc1C(=O)c1ccccc1	inconclusive: 31.6 µM [inhibitor, full curve]	
CCCc1cc(=O)oc2cc(OCC(=O)N3CCC(C(=O)O)(c4ccccc4)CC3)ccc12		inactive: -9.65% [at 12.7 µM]
CC1CCN(C(=O)CCl)CC1		inactive: -8.85% [at 102 µM]
Cc1ccc(C(=O)c2cc(Br)ccc2N)cc1	inconclusive: 70.8 µM [inhibitor, single point]	

SMILES	Potency	activity, negative = inhibition
O=C(Cc1ccc([N+](=O)[O-])cc1)N1CCN(Cc2ccc3c(c2)OCO3)CC1	inconclusive: 89.1 µM [inhibitor, single point]	
C(=N\NC1=NCCCCC1)/c1c[nH]c2ccccc12	inconclusive: 70.8 µM [inhibitor, partial curve]	
COCCOC(=O)c1c(N)n(Cc2ccco2)c2nc3ccccc3nc12		inactive: -28.6%
O=C(NCc1ccc(Cl)cc1)C1CCCN(C(=O)c2cnn(-c3ccc(F)cc3)c2-n2cccc2)C1 (centres undefined)	inconclusive: 8.91 µM [inhibitor, partial curve, poor fit]	
CC(=O)c1c(O)n(C)c(=S)n(-c2ccccc2)c1=O		inactive: 24.1%
O=Cc1ccc(O)c(O)c1	inconclusive: 0.708 µM [inhibitor, full curve, poor fit]	
C=CCn1c(O)c(C=NCCCOc2ccc(CC)cc2)c(=O)[nH]c1=S	inconclusive: 22.4 µM [inhibitor, single point]	
OC1(c2ccccc2)CCNC2CCCCC21 (centres undefined)	inconclusive: 89.1 µM [inhibitor, single point]	
CCCCn1c(O)c(C(C)=Nc2ccc(OCC)cc2)c(=O)[nH]c1=O	inconclusive: 70.8 µM [inhibitor, single point]	
N#CC1=C(N)Oc2n[nH]c(-c3cccs3)c2C1c1ccccc1C(=O)O (centres undefined)	inconclusive: 79.4 µM [inhibitor, partial curve, poor fit]	
CCN1C(=O)C(=Cc2ccc(C)s2)C(=O)N(CC)C1=S	active: 35.5 µM	
C[N+]1([O-])CCC[C@@H]1c1cccnc1 (some centres undefined)		inactive: 32.4%
O=C(O)C(Cc1cnc[nH]1)NS(=O)(=O)c1ccc(Br)cc1 (centres undefined)	active: 39.8 µM	
CC1(O)CCN2C(=O)CCc3cccc1c32 (centres undefined)	inconclusive: 5.62 µM [inhibitor, single point]	
CN1CCCN(c2ccc([N+](=O)[O-])nc2)CC1	inconclusive: 79.4 µM [inhibitor, single point]	
C=CC1CN2CCC1CC2C(OC(=O)OCC)c1ccnc2ccc(OC)cc12 (centres undefined)		inactive: -24.3% [at 2.33 µM]
O=C(C(=C1N(Cc2ccc(Cl)nc2)CCN1Cc1ccc(Cl)nc1)[N+](=O)[O-])C(Cl)Cl	inconclusive: 50.1 µM [inhibitor, partial curve, poor fit]	
O=C(Nc1cc(C(F)(F)F)cc(C(F)(F)F)c1)c1cccn(Cc2ccccc2Cl)c1=O		inactive: 43.8%
CCCCn1c(O)c(/C=N/N2CCOCC2)c(=O)[nH]c1=S	active: 44.7 µM	
CCCCn1c(O)c(C(C)=Nc2ccc(C(=O)O)cc2)c(=O)[nH]c1=O	active: 44.7 µM	
COc1ccc(CN2CCN(C(=O)COc3cccc(C)c3)CC2)c(OC)c1	inconclusive: 1 µM [inhibitor, partial curve, poor fit]	
Oc1cn2c(n1)Nc1ccc(Cl)c(Cl)c1C2	inconclusive: 2.82 µM [inhibitor, partial curve, poor fit]	
